Laboratory results as given in PubChem BioAssay AID504332 (National Center for Advancing Translational Sciences (NCATS), 2011).
Hit rate of the full screen: of about 350,000 compounds, about 31,000 (8.9%) were called active. Inconclusive results, whose numbers are uncertain, are shown with a selection of clear calls. Calls follow the shape of the dose curve; as a rule, active = well fitted inhibition curve with a large enough effect; inconclusive = small, poorly fitted or top-dose-only effect; inactive = no such curve, though single readings can be large or run the other way. A potency beside an inconclusive call is a rough fit, not a confirmed value.

biological target: Histone-lysine N-methyltransferase EHMT2 (Homo sapiens) (UniProt Q96KQ7); assay: qHTS Assay for Inhibitors of Histone Lysine Methyltransferase G9a; details: G9a H3K9 monomethylation, AlphaScreen, 2 h; activity, negative = inhibition: at 59 µM (top of the series) unless noted; also: nearly all actives have a fitted effect of over 75% in size
UniProt Q96KQ7, sequence (Q96KQ7 whole entry, looked up): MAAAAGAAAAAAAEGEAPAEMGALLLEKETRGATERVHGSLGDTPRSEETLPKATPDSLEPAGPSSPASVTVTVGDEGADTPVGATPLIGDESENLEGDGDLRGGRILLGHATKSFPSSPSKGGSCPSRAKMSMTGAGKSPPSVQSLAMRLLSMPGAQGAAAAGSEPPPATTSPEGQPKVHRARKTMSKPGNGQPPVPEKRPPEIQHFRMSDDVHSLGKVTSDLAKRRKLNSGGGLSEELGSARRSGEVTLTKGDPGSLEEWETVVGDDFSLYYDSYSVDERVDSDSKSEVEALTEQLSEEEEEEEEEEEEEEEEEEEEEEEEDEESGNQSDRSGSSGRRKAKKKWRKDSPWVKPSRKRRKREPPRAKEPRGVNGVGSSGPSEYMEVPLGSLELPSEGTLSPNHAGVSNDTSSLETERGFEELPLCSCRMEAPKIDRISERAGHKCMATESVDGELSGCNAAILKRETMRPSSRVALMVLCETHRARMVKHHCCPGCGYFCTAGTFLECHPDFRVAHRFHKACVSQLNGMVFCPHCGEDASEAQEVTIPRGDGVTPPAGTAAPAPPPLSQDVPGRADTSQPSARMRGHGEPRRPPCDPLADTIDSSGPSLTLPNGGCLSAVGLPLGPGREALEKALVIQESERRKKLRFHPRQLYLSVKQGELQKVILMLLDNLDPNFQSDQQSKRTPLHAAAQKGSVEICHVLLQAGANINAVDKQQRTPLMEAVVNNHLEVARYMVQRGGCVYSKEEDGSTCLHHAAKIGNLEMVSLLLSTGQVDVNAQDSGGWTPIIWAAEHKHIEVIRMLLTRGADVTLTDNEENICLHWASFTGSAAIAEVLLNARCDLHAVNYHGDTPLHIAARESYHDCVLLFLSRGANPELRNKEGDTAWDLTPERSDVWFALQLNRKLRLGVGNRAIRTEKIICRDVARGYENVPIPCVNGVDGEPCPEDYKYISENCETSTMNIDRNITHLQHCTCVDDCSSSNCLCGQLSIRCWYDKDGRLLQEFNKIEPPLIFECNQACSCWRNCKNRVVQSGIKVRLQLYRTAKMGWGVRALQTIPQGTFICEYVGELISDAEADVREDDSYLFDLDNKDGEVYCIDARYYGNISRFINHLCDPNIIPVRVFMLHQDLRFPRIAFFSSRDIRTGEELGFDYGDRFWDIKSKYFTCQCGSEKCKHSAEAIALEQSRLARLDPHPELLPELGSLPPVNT
Outline: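 Readings reflect AlphaScreen signal from monomethyl-H3K9 antibody detection. HMT at 20 nM; substrate b-H3K9 500 nM; cofactor SAM 20 uM; 2 h RT reaction; compounds tested as titrations in qHTS with 15 min preincubation.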
% is scaled to controls: 0 for no effect and ±100 for the full control effect; potency is read from the fitted curve at half-maximal effect; tags tell the direction and shape of the fitted curve.

| SMILES | Potency | activity, negative = inhibition |
| --- | --- | --- |
| CC(=O)N/C(=C\c1ccccc1)C(=O)Nc1ccccc1C | inconclusive: 89.1 µM [inhibitor, single point] |  |
| CCOC(=O)C1=C(CC)OC(N)=C(C#N)C1c1ccc(NC(C)=O)cc1 (stereo not given) | inconclusive: 50.1 µM [inhibitor, partial curve, poor fit] |  |
| CCOc1cc(NC(=S)NCCCN2CCOCC2)c(OCC)cc1NC(=O)CC(C)C |  | inactive: -2.74% |
| COCc1cc(CN2CCCC2)c(O)c2ncccc12 | inconclusive: 56.2 µM [inhibitor, partial curve, poor fit] |  |
| COc1ccc(CN2C(=O)C(Cc3ccccc3)Nc3ncnc(N4CCOCC4)c32)cc1 (stereo not given) | inconclusive: 4.47 µM [inhibitor, single point] |  |
| O=C(NCc1cccc(CNC(=O)c2ccco2)c1)c1ccco1 |  | inactive: -17.2% |
| Cc1cccc(Cn2c(O)c(N=NC(=S)Nc3ccccc3F)c3ccccc32)c1 | active: 8.91 µM |  |
| Cc1ccccc1-c1ncnn1-c1sc2c(c1C#N)CCCCC2 | inconclusive: 3.55 µM [inhibitor, partial curve, poor fit] |  |
| COc1ccc(-c2cc3nc(C)c(CCC(=O)N4CCN(c5cccc(Cl)c5)CC4)c(C)n3n2)c(OC)c1 | inconclusive: 20 µM [inhibitor, partial curve, poor fit] |  |
| CCS(=O)(=O)N1CCCC(C(=O)N2CCc3ccccc3C2)C1 (stereo not given) |  | inactive: 25.4% [at 0.501 µM] |
| O=C(CN1C=NS(=O)(=O)c2ccccc21)Nc1ccc(F)cc1 |  | inactive: 0.762% |
| Cn1c(NC(=O)c2ccc(Cl)cc2)cc(=O)n(C)c1=O | inconclusive: 1.26 µM [inhibitor, full curve, poor fit] |  |
| CCCC1=Nc2cc(C(=O)N3CCCC3)ccc2Sc2ccc(C)cc21 |  | inactive: -6.07% [at 102 µM] |
| Cc1ccc(NC(=O)c2cnc(SCC(=O)NCC3CCCO3)n(C)c2=O)cc1 (stereo not given) | inconclusive: 28.2 µM [inhibitor, partial curve, poor fit] |  |
| CC1CCCC(NC(=O)NC(=O)CCl)C1C (stereo not given) | inconclusive: 10 µM [inhibitor, partial curve] |  |
| CN=C1S/C(=C\c2ccc(OCC(=O)OC)c(OC)c2)C(=O)N1C | inconclusive: 89.1 µM [inhibitor, partial curve, poor fit] |  |
| CCOC(=O)c1ccc2nc(C(F)(F)F)[nH]c(=O)c2c1 |  | inactive: -9.31% |
| COc1c(OC(C)=O)ccc(/C=C/c2ccc3ccccc3n2)c1[N+](=O)[O-] | inconclusive: 31.6 µM [inhibitor, partial curve, poor fit] |  |
| COc1ccccc1C(=O)Nc1nnc(-c2ccc(Cl)cc2)o1 |  | inconclusive: -57.4% [inhibitor] |
| CCOC(=O)Nc1ccc(=O)n(Cc2c(Cl)cccc2Cl)c1 | inconclusive: 79.4 µM [inhibitor, single point] |  |
| CCc1ccc(NC(=O)Cc2cn(C)c3ccccc23)cc1 | inconclusive: 89.1 µM [inhibitor, single point] |  |
| O=c1c2ccccc2[nH]c2ccc(O)cc12 | active: 39.8 µM |  |
| O=C(NCC1CCCO1)C(=O)N/N=C\c1ccc2c(c1)OCO2 (stereo not given) | inconclusive: 50.1 µM [inhibitor, partial curve] |  |

| SMILES | Potency | activity, negative = inhibition |
| --- | --- | --- |
| COCCN1C(=O)c2oc3c(C)cc(C)cc3c(=O)c2C1c1cccc(O)c1 (stereo not given) | inconclusive: 1 µM [inhibitor, full curve, poor fit] |  |
| CCc1nnc2n1N=C(c1ccc(-c3cc(Cl)ccc3Cl)o1)CS2 | inconclusive: 89.1 µM [inhibitor, single point] |  |
| CCOc1ccc(C(=O)NCC(C)C)cc1 | active: 0.891 µM |  |
| Cc1onc(-c2ccccc2)c1C(=O)NCc1ccc2c(c1)OCO2 | inconclusive: 6.31 µM [inhibitor, full curve, poor fit] |  |
| O=C(Nc1cc(F)ccc1F)C1CCN(c2nc3ccccc3n3cccc23)CC1 | inconclusive: 10 µM [inhibitor, partial curve, poor fit] |  |
| COc1cccc(NC(=O)C2CCN(S(=O)(=O)c3ccc4c(c3)NC(=O)C(C)S4)CC2)c1 (stereo not given) |  | inactive: 25.9% [at 102 µM] |
| Cc1ccc(S(=O)(=O)CNC(=S)c2cccc(C)c2)cc1 | active: 10 µM |  |
| CN1c2ccccc2C(O)=C(C(=S)Nc2ccc(F)c(Cl)c2)S1(=O)=O | inconclusive: 39.8 µM [inhibitor, single point] |  |
| Cc1[nH]c(-c2ccc(F)cc2)cc1C(=O)N1CCN(c2ccc(Cl)cc2)CC1 | inconclusive: 70.8 µM [inhibitor, partial curve, poor fit] |  |
| CC(=O)/C(=C/N(C)C)C(=O)Nc1ccc(Cl)cc1Cl |  | inconclusive: -61% [inhibitor] |
| O=C(O)CC(NC(=O)c1cccc([N+](=O)[O-])c1)c1ccc2c(c1)OCO2 (stereo not given) | inconclusive: 0.141 µM [inhibitor, partial curve, poor fit] |  |
| CN(CC(=O)O/N=C(\N)c1ccc([N+](=O)[O-])cc1)S(=O)(=O)c1ccc2ccccc2c1 | inconclusive: 89.1 µM [inhibitor, single point] |  |
| Nc1nc(-c2ccc3c(c2)CCC(=O)N3)cs1 | active: 44.7 µM |  |
| O=C(Nc1ccccc1)Nc1ncc([N+](=O)[O-])s1 | active: 44.7 µM |  |
| CCN(CC)CCCNC(=S)N(Cc1cccnc1)Cc1cc2cccc(C)c2[nH]c1=O |  | inactive: -2.14% [at 102 µM] |
| Cc1ccc(C)c(OCCCCCn2ccnc2)c1 | inconclusive: 8.91 µM [inhibitor, full curve, poor fit] |  |
| CCOCCCn1c(=NC(C)=O)c(C(=O)OCC)cc2c(=O)n3ccccc3nc21 | inconclusive: 89.1 µM [inhibitor, partial curve, poor fit] |  |
| CN(C(=O)/C=C/c1ccco1)c1ccccc1C(=O)O | active: 25.1 µM |  |
| Cc1cc(C(=O)Nc2cccc3ccccc23)c(C)o1 |  | inactive: 14.5% [at 102 µM] |
| CC(=O)c1cccc(NC(=O)CC2S/C(=N/N=C3CCCCCC3)NC2=O)c1 (stereo not given) |  | inactive: 22.2% [at 102 µM] |
| C=CCNC(=S)NNc1nc(Nc2ccccc2)nc(N2CCCCC2)n1 | inconclusive: 35.5 µM [inhibitor, partial curve, poor fit] |  |
| O=[N+]([O-])c1cccc(/C=N\N=C2c3ccccc3-c3ccccc32)c1O | inconclusive: 5.62 µM [inhibitor, full curve, poor fit] |  |
